# Measurements reported in paper PMC4336329 (PLoS ONE, 2015).
# The whole screen tested about 310,000 compounds, of which about 14,000 (4.5%) showed an effect of 50% or more. The effect is printed as a negative number. The list shows a part of the results.
# Target: human ether-à-go-go-related gene (hERG) potassium channel (human, UniProt Q12809)
# Assay: primary screen, population patch clamp on CHO cells stably expressing hERG
# 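Also: peak tail current of the secondary pulse compared with the same well before compound.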
# human ether-à-go-go-related gene (hERG) potassium channel, sequence (Q12809 whole entry, looked up): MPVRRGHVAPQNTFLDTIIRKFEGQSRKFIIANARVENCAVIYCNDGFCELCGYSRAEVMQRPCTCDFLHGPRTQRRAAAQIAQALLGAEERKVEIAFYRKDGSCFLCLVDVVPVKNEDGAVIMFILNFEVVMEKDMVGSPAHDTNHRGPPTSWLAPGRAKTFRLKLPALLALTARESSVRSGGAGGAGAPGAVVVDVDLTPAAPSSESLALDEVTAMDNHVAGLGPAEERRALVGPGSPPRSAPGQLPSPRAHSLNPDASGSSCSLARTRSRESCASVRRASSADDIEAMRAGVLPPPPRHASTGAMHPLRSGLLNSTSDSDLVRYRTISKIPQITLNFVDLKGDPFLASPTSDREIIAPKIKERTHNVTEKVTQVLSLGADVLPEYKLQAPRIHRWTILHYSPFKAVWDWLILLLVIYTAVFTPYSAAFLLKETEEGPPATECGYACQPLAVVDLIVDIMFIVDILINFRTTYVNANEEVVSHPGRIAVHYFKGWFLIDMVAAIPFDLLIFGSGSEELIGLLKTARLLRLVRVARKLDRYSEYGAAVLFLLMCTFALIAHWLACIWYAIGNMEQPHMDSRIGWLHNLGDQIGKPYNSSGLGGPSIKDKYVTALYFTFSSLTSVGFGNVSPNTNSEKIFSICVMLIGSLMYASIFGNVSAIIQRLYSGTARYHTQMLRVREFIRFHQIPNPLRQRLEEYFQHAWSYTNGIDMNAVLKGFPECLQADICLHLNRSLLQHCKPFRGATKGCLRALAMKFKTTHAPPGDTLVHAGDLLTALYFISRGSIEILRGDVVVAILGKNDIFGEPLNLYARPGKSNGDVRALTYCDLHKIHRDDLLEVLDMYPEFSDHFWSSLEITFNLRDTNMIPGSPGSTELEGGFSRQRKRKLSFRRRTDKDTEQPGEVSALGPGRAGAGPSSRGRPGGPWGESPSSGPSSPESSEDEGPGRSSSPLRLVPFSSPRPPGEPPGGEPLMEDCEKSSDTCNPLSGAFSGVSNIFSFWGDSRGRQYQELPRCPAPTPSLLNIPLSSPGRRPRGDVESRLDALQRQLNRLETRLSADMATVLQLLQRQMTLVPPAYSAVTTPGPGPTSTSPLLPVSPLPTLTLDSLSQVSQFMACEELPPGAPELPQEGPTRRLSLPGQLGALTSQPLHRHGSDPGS
row,SMILES,"hERG current change (%, negative = inhibition) at 10uM [%]"
1,COc1cccc(/C=C2/NC(=O)N(CC(=O)Nc3ccc(C)cc3)C2=O)c1OCc1cccc(C(=O)O)c1,22.7
2,Cn1cccc1C(=S)N1CCOCC1,0.689
3,O=c1c2c3c(sc2nc2n1CCCCC2)CCCC3,-9
4,CC1CC2C3CCC4=CC(=O)C=CC4(C)[C@@]3(Cl)C(O)CC2(C)C1(O)C(=O)CO (stereo partly drawn),17.1
5,CC1Cc2nc(SCC(=O)Nc3ccc(F)cc3)n(C)c(=O)c2S1 (stereo not drawn),-11
6,COCCNC(=O)c1ccccc1N(Cc1ccccc1)S(=O)(=O)c1ccc(C)cc1,-4.33
7,O=C(Nc1ccccc1C(=O)Nc1ccncc1)c1ccccc1,8.73
8,Cc1c(NC(=O)C2(C)CCCCC2)c(=O)n(-c2ccccc2)n1C,6.22
9,Oc1ccc(CCNc2ncnc3ccc(Cl)cc23)cc1,-26.4
10,COc1ccc(CCNC(=O)CCCOc2cccc(C)c2C)cc1OC,-16
11,Cn1cccc1/C=N/NC(=O)c1sc2ccccc2c1Cl,-6.61
12,O=C(Nc1ccc(F)cc1)/C(Cl)=C/c1ccccc1,2.7
13,O=C(Nc1ccc2c(c1)OCCO2)c1ccc(Br)o1,-1.76
14,COc1cc(C(=O)N2CCCN(C)CC2)cc(OC)c1C.Cl,17.6
15,COC/C=C/C1=CC2=CC(=O)C(C)(OC(=O)c3cnc4ccccc4n3)C(=O)C2=CN1Cc1ccccc1 (stereo not drawn),-9.89
16,CCN(CC)CCCN(C(=O)c1cccc(C)c1)c1nc(-c2ccc(OC)cc2)cs1,-78.2
17,Cn1c(SCC(=O)Nc2ccc(F)cc2)nnc1-c1cccnc1,-11.5
18,CCNC(=S)N(CCc1cccc(C)c1)Cc1cc2cc(OC)c(OC)cc2[nH]c1=O,-22.4
19,COc1ccc(S(=O)(=O)N2CCC(C(=O)N3CCN(c4ccccc4OC)CC3)CC2)cc1,-7.06
20,CC(=O)Nc1ccc(S(=O)(=O)N(C)c2ccccc2)cc1,0.318
21,CCOC(=O)c1c(-c2ccccc2)csc1NC(=O)CSc1nc(N)cc(N)n1,11
22,COC(=O)c1ccc(COc2ccccc2/C=C(\C#N)C(=O)NC(C)C)cc1,-11.8
23,O=C1CCN(Cc2ccccc2)C(=O)N1c1ccccc1,1.55

row,SMILES,"hERG current change (%, negative = inhibition) at 10uM [%]"
1,CN(C)CCNC(=O)c1ccc2c(c1)NC(=O)c1ccccc1S2,17.3
2,COc1cccc(CN2C(=O)C3CCCN3c3ccc(S(=O)(=O)N4CCOCC4)cc32)c1 (stereo not drawn),5.87
3,Nc1ncccc1OCc1ccc(Br)cc1,-15.9
4,Cc1c(NC(=O)C(C)OC(=O)CCc2c[nH]c3ccccc23)c(=O)n(-c2ccccc2)n1C (stereo not drawn),17.2
5,CC(=O)C1=C(O)C(=O)N(c2ccc(F)cc2)C1c1ccc(C)cc1 (stereo not drawn),20.5
6,Cc1ccc(C(=O)NN2C(=O)C3C4C=CC(C5CC45)C3C2=O)cc1 (stereo not drawn),5.3
7,COc1ccc(-c2noc(-c3ccccc3C(=O)Nc3cccc(OC)c3)n2)cc1,2.25
8,Cc1csc(SCc2ccccc2C(=O)O)n1,9.92
9,O=[N+]([O-])c1ccc(-c2nnc(-c3ccccc3)c(N3CCOCC3)n2)cc1,-15.9
10,CN(C)S(=O)(=O)c1ccc(N2CCCC2)c(C(=O)NCC2COc3ccccc3O2)c1 (stereo not drawn),-30.8
11,CCOC(=O)COc1ccc2c3c(c(=O)oc2c1C)CCC3,17.1
12,CCOC(=O)c1c(NC(=O)CSc2nncs2)sc(C)c1-c1ccccc1,-3.83
13,COc1ccc(-c2c3c(=O)n(C)c(=O)n(C)c3cn2N2CCOCC2)cc1,-52.3
14,CC(C)c1ccc(N2C(=O)CSC23C(=O)N2CCCc4cccc3c42)cc1 (stereo not drawn),10.2
15,Cc1c(Cl)c([N+](=O)[O-])nn1CCCC(=O)NC1CCCCC1,-10.9
16,CC1CN(c2nn3c(=O)c4ccccc4nc3c3ccccc23)CC(C)O1 (stereo not drawn),-25.7
17,CCCCN1C2CCCC1CC(NC(=O)C1CCCCC1)C2 (stereo not drawn),-16.9
18,CC(C)(C)OC(=O)NCC12C=CC(O1)C1C(=O)N(Cc3ccccc3)C(=O)C12 (stereo not drawn),3.06
19,COc1ccc(S(=O)(=O)N(CC(=O)NCc2ccco2)c2ccc(C)cc2)cc1OC,8.64
20,O=C(CSc1n[nH]c(-c2ccco2)n1)Nc1ccccc1,-20.4
21,CCN(CC)S(=O)(=O)c1ccc2c(c1)N(CC(=O)NCCN1CCOCC1)C(=O)CO2,15
22,Cc1ccc(N(C(=O)c2csnn2)C(C(=O)NC2CCCCC2)c2cccnc2)cc1 (stereo not drawn),-8.51
23,Cc1ccc(CNC(=O)COC(=O)c2cc(C)oc2C)cc1,9.96

row,SMILES,"hERG current change (%, negative = inhibition) at 10uM [%]"
1,Cc1cccc(NC(=S)N2CCN(c3ccccc3F)CC2)c1C,10.2
2,CCC1CCCCN1C(=O)CSc1nc(N)cc(N)n1 (stereo not drawn),49.9
3,O=C(c1ccc(Cn2c(=O)[nH]c3ccccc3c2=O)cc1)N1CCN(c2ccc(Cl)cc2)CC1,0.857
4,CCCOC(=O)c1[nH]c2c(c1C)C(=O)CC(c1cc(OC)c(OC)c(OC)c1)C2 (stereo not drawn),1.17
5,COC(=O)C(CC(C)C)NC(=O)CNC(=O)c1ccccc1C (stereo not drawn),3.34
6,Cl.Clc1ccccc1CNC1CN2CCC1CC2 (stereo not drawn),-3.27
7,Cc1cccc(N/N=C/c2ccncc2)c1,-1.3
8,OCC[C@H]1C[C@H](O)[C@@H](O)[C@]2(CCCCO2)O1,-6.39
9,O=C1CCC([N+](=O)[O-])C(c2ccc(C(F)(F)F)cc2)N1 (stereo not drawn),9.34
10,Cc1onc(-c2c(Cl)cccc2Cl)c1C(=O)NC1CCCCC1,0.0692
11,O=C(c1ccc(F)cc1)N1CCCC(c2nc(-c3cccs3)no2)C1 (stereo not drawn),-18.5
12,C=CCn1cnc2c(sc3nc(C)cc(C)c32)c1=O,-6.75
13,O=C(NCC1CCCO1)C(C(=O)c1ccccc1)n1ccccc1=O (stereo not drawn),2.74
14,CC12CCC(C(=O)N3CCN(C(c4ccccc4)c4ccccc4)CC3)(OC1=O)C2(C)C (stereo not drawn),-0.0815
15,O=C(Nc1ccon1)c1csc2c1CCCC2,-17.9
16,CC(C)C(=O)Nc1cccc(NC(=O)c2cccnc2)c1,-2.96
17,CCCc1nnc(NC(=O)COC(=O)c2cc(C)nc3ccccc23)s1,-10.5
18,COC(=O)Nc1ccc(S(=O)(=O)N(C)CC(F)(F)C(F)F)cc1,-9.74
19,O=S(=O)(c1ccc(Cl)cc1Br)N1CCCCC1,-26.7
20,O=C(O)CCC(=O)NCCc1cccc(Cl)c1,8.22
21,COC(=O)c1ccc(C(=O)OC)c(NC(=O)c2cnc3n(c2=O)CCS3)c1,-2.57
22,CCOc1ncccc1C(=O)Nc1ccc(OC)c(S(=O)(=O)N2CCCCC2)c1,18.4
23,CC(=O)c1cccc(N2C(=NC(=O)CCc3ccccc3)SC3CS(=O)(=O)CC32)c1 (stereo not drawn),-5.41

row,SMILES,"hERG current change (%, negative = inhibition) at 10uM [%]"
1,CN1CCN(CC/C=C2\c3ccccc3Sc3ccc(S(=O)(=O)N(C)C)cc32)CC1,-58
2,CCCCc1ccc(NC(=S)N2CCCC(CO)C2)cc1 (stereo not drawn),-5.21
3,CC(C)(C)n1nc2c(c1NC(=O)c1ccccc1C(F)(F)F)CS(=O)(=O)C2,25.4
4,CCOc1ccccc1NC(=O)COc1coc(CN2CCc3ccccc32)cc1=O,4.83
5,CN(C(=O)CSCC(=O)O)C1CCCCC1,-1.9
6,O=C(NCCc1ccccn1)C1CCCN1S(=O)(=O)c1ccc(Cl)cc1 (stereo not drawn),6.89
7,O=C(O)C1CCCCN1S(=O)(=O)c1ccccc1 (stereo not drawn),15.1
8,CC(C)(C)NC(=O)c1cc2c(ccc3ccccc32)oc1=O,27.1
9,Cc1occc1C(=O)N1CCCc2ccccc21,5.44
10,COc1ccccc1CCN1CCCC(CN(C)C(=O)CCC(N)=O)C1 (stereo not drawn),22.5
11,CC1CCC(C(C)C)C(OC(=O)COC(=O)c2ccc(N)cc2)C1 (stereo not drawn),6.47
12,NC(=O)COc1ncnc2scc(-c3ccc(F)cc3)c12,2.16
13,CCOc1cc(C2C(C(=O)c3ccccc3)=C(C(=O)OC)Nc3nnnn32)ccc1O (stereo not drawn),8.69
14,Clc1ccc2nc(SCc3nnc(-c4ccccc4)o3)[nH]c2c1,-18.3
15,CCn1c(SCC(=O)c2ccc3ccccc3c2)nnc1-c1cccs1,-8.29
16,Cc1ccc(NC(=O)COc2ccc(Br)cc2C)cc1,0.803
17,COc1ccc(-c2noc(CCC(=O)Nc3cccc(C)c3)n2)cc1,7.35
18,Cc1cc(C)cc(OCC(=O)Nc2cc(C)on2)c1,15.9
19,COc1cc(C)nc(N2CCCC(C(=O)Nc3cccc(Cl)c3C)C2)n1 (stereo not drawn),0.916
20,O=C(O)c1ccc(CSc2nnc(Cc3ccccc3)o2)cc1,-5.04
21,CCCCCN(C(=O)CCC(=O)OCc1ccccc1C)c1c(N)n(CCCC)c(=O)[nH]c1=O,-41.1
